{"source": "paper PMC10726135", "note": "This is one part of the list. At the low end of the ranking the order means little. The protein was read in a cell extract, so binding may be indirect.", "data": [{"molecular_target": "T1, HNF4alpha2 (COS-7 nuclear extract) (UniProt P41235)", "T1 sequence": "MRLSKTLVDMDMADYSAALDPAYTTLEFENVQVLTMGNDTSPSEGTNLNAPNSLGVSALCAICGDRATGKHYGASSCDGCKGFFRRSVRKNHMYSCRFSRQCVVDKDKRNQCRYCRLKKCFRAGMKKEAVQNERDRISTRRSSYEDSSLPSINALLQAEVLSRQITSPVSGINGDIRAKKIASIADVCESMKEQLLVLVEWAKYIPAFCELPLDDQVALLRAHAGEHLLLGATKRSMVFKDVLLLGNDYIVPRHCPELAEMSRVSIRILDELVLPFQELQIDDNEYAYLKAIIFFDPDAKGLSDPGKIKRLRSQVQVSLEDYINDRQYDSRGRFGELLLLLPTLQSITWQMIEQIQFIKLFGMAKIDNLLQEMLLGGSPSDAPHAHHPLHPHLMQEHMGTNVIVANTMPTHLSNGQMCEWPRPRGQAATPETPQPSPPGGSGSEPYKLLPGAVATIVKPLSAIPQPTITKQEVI", "test": "protein-binding microarray", "conditions": "COS-7 nuclear extract on double-stranded Agilent 4x180k PBM; binding buffer, salt, pH and temperature not given; high values mean tight binding; double strand, one strand shown; sequences stand for … in …GCCTAGGGAGATTAGAGTATCGGTCGA", "values": [{"sequence": "GCACATGAATGATCAAAGGTTGGTTTTTGG", "binding signal (log2 normalized intensity)": 3.45}, {"sequence": "GTGCACTTCTCTTTGAGTCCCAATCCCCCA", "binding signal (log2 normalized intensity)": 4.31}, {"sequence": "TGGAGGAGGGCGAGGCCGAGCCTCAGCCGG", "binding signal (log2 normalized intensity)": -1.17}, {"sequence": "TCCTCCCATTCCAGCTCTTTACTCAGGTCA", "binding signal (log2 normalized intensity)": 1.5}, {"sequence": "CAGCCCCTTATCAGGAGAGGAGGCCCACAC", "binding signal (log2 normalized intensity)": 1.25}, {"sequence": "GGCTAGCATTCCTGCACACCTGCCTTTGAT", "binding signal (log2 normalized intensity)": -1.14}, {"sequence": "GATCAGTGTTGAGAATCCCTCCCCTGTGCA", "binding signal (log2 normalized intensity)": 3.7}, {"sequence": "CGGACTTTGTCCTTTGATTTTTTAAAGTAA", "binding signal (log2 normalized intensity)": 4.4}, {"sequence": "GGAAGGCAACCACAGCCTCTGCATTTGCTC", "binding signal (log2 normalized intensity)": -1.11}, {"sequence": "TTCTAGAACCAGGAATCCTAGGGAAGAAAC", "binding signal (log2 normalized intensity)": -1.17}, {"sequence": "TTAAATAAGTCCTAAGCCTTATTATCTGCT", "binding signal (log2 normalized intensity)": -1.27}, {"sequence": "CTCTTCCAAGTGTTCTTTACTTCCTTTTGT", "binding signal (log2 normalized intensity)": 1.38}, {"sequence": "ACTATTTGATGAGTCTTAGAGTCCAGACAC", "binding signal (log2 normalized intensity)": 1.67}, {"sequence": "TGAGTGAGTAGGTTCTCAGCTGACATTGGT", "binding signal (log2 normalized intensity)": 0.748}, {"sequence": "TGGGCATCTGCAGGGCAGCAGACTCAGAAA", "binding signal (log2 normalized intensity)": -1.1}, {"sequence": "AATGTGACCCCTTTCATGAATAAATGACAT", "binding signal (log2 normalized intensity)": 2.21}, {"sequence": "AGTGGTTTAAAAACTTATCTTGTGACCTTT", "binding signal (log2 normalized intensity)": 6.81}, {"sequence": "CATGTTGGCATTCCAGGATGAAGGAAGAGG", "binding signal (log2 normalized intensity)": -1.12}, {"sequence": "AATGACTAAGGCAGGGAAGGAGAGTGACCT", "binding signal (log2 normalized intensity)": 2.87}, {"sequence": "AGAGAGGGACTAGAACTCAGTGTGAACTCA", "binding signal (log2 normalized intensity)": 0.753}, {"sequence": "TATTCATGTCCCTACCACATACAGAATCCT", "binding signal (log2 normalized intensity)": 0.317}, {"sequence": "AAGAAAGTTCAGCCCTTAGGACCAGGGGGG", "binding signal (log2 normalized intensity)": -1.21}, {"sequence": "TTGGAAGCCACATTAAGTGACTTAATTATC", "binding signal (log2 normalized intensity)": -0.801}, {"sequence": "GCCACCATGCTCGGCTGCCTCTCCAAACAA", "binding signal (log2 normalized intensity)": -1.15}, {"sequence": "GCATATGCCAACAGGTGCTCTTTATCAGCA", "binding signal (log2 normalized intensity)": 0.0224}, {"sequence": "AATGACACTAGCAGAAGAGACAGTCAATTA", "binding signal (log2 normalized intensity)": -0.744}, {"sequence": "GCCGCTGACAAGCAGCCTCAGTGGCTCACA", "binding signal (log2 normalized intensity)": -1.31}, {"sequence": "CAGCGGTGCCTCAACCGAGCGTCCAAGCTC", "binding signal (log2 normalized intensity)": -1.09}, {"sequence": "CGCTAGCTTTCTGGTCTTTGTTCTTTACTT", "binding signal (log2 normalized intensity)": 1.89}, {"sequence": "TCCAGGCTTGTCCTTTTGACCACAGTTATC", "binding signal (log2 normalized intensity)": 2.33}, {"sequence": "ATTATCTACAGAGATAACAGGCCACAACTT", "binding signal (log2 normalized intensity)": -0.703}, {"sequence": "CCTCGTGGTGCTGATCCCAGCCCCACGGCT", "binding signal (log2 normalized intensity)": -0.652}, {"sequence": "ATTGTCCAAGGGCTGTAGCAACCAAGTACC", "binding signal (log2 normalized intensity)": -0.865}, {"sequence": "TACAGTGATGTTTGTCAAATGCTTCCAAGA", "binding signal (log2 normalized intensity)": -1.18}, {"sequence": "CCTCCCTGCCTTAGTCCCAGTATGGTCTCA", "binding signal (log2 normalized intensity)": 1.02}, {"sequence": "GGCTGAACATGACTGGCATTCCCCTATGTC", "binding signal (log2 normalized intensity)": 1.03}, {"sequence": "TGAGATGAAGAGGCCAGGGGCACTCTCTGT", "binding signal (log2 normalized intensity)": -1.08}, {"sequence": "TCAAGGCTGCCTGGCAGGGTGGGGTGGGGG", "binding signal (log2 normalized intensity)": -1.13}, {"sequence": "AAAATTAAAGCGGACGGGCTGCGGAGGCGA", "binding signal (log2 normalized intensity)": -1.24}, {"sequence": "ATTCATCCTCCAAAACCCAGTTCATAGGTC", "binding signal (log2 normalized intensity)": 3.41}, {"sequence": "TGGGGAAACTGTTATCTCTCAACTCAGTGA", "binding signal (log2 normalized intensity)": -0.543}, {"sequence": "GGACCGCCAAGGAAGCGATGGGCTGGCCCT", "binding signal (log2 normalized intensity)": -1.07}, {"sequence": "CATACTGAAAAAGGGTTGTGCAAACTTCAG", "binding signal (log2 normalized intensity)": 1.04}, {"sequence": "CCACACAGCACGTAATAGTTCATGAAATGG", "binding signal (log2 normalized intensity)": 0.713}, {"sequence": "GCGCGGCCTCCCCAGAGGCTGGTCAGAATT", "binding signal (log2 normalized intensity)": 0.66}, {"sequence": "CCTTGATGTGTATTTGTAGCTTCAAACCAG", "binding signal (log2 normalized intensity)": 1.24}, {"sequence": "ACACCAACCTGTTCCAAAGTCCACCGTGGT", "binding signal (log2 normalized intensity)": 4.78}, {"sequence": "ATAGGCAGAAGGGACTAGCCTTATCTCAGA", "binding signal (log2 normalized intensity)": -1.06}, {"sequence": "CCCCCGGCTCTACGCAAGTGGTACCTCCCG", "binding signal (log2 normalized intensity)": 2.58}, {"sequence": "TAACATGTATCAACATGTTTATCCTTCAAC", "binding signal (log2 normalized intensity)": 0.569}, {"sequence": "CTGTTTCTTTGTGTGTCAACAGAGTGCTTA", "binding signal (log2 normalized intensity)": 1.53}, {"sequence": "TTAGATTCCATGCAGCAGCATCCAGCCCCA", "binding signal (log2 normalized intensity)": 3.05}, {"sequence": "TTTAACCAGAGTCTACAGGTCAGACCTGTT", "binding signal (log2 normalized intensity)": 1.37}, {"sequence": "GATAGATTTTGCATTGCTCACATAGCTGGG", "binding signal (log2 normalized intensity)": -1.13}, {"sequence": "CCTTTCTTTGTCTTTGCAATGTTGTCTTTT", "binding signal (log2 normalized intensity)": 2.33}, {"sequence": "GAGCCCACAGTCCAGTACCATTTCCTGGTC", "binding signal (log2 normalized intensity)": -0.697}, {"sequence": "GAGAGGTCAATGTCCAGTTCCGCTGCAGTT", "binding signal (log2 normalized intensity)": 4.22}, {"sequence": "TGTGGCTAACAATATGGGGTGGGGAAGAAG", "binding signal (log2 normalized intensity)": -1.13}, {"sequence": "AGAGCACAACCTTTGGCCGTGCATGCTTGG", "binding signal (log2 normalized intensity)": 1.84}, {"sequence": "TCCAAATTCCTTGGAATACATGGAATGCTC", "binding signal (log2 normalized intensity)": -0.18}, {"sequence": "AGCCCAAGAAGCGTCAGTTGCCTCGCCAGA", "binding signal (log2 normalized intensity)": -1.07}, {"sequence": "GGGCTCCCACCAGGGGGAGGCTCAGAGTCT", "binding signal (log2 normalized intensity)": -1.08}, {"sequence": "ACATGAGCTAGTGCTAAAGGTCATATCCAA", "binding signal (log2 normalized intensity)": 4.2}, {"sequence": "GCAGGTGGCTACATGATGTCAGTTTGACTC", "binding signal (log2 normalized intensity)": 0.999}, {"sequence": "GTGGTCTTTATGACTTGGGTGCACCAATGA", "binding signal (log2 normalized intensity)": 2.04}, {"sequence": "AGGAGCCAAAGTCCTTCCCAAGTCCTGCAT", "binding signal (log2 normalized intensity)": 1.63}, {"sequence": "AAAATAGTTTCAACTTAACCCCAGTTTAGC", "binding signal (log2 normalized intensity)": 2.16}, {"sequence": "TCCACAGTCAAGGCCAAAGGTTAAAAATAA", "binding signal (log2 normalized intensity)": 3.7}, {"sequence": "TGATCCATTCTACCCCTGTGGTTGACCTTT", "binding signal (log2 normalized intensity)": 7.8}, {"sequence": "CCCCTTGCTGAGTGGAAAAACACCTGGTTC", "binding signal (log2 normalized intensity)": 0.86}, {"sequence": "GGGATCAGCAATGCTCAGCCCACCTTTTGG", "binding signal (log2 normalized intensity)": -1.15}, {"sequence": "CCTGGATGCCAGGCAAGAGCTCAGAAGCCA", "binding signal (log2 normalized intensity)": -1.06}, {"sequence": "GCCCACAATTGCATGTTCAACAGACAGCTG", "binding signal (log2 normalized intensity)": -1.08}, {"sequence": "TGTGGGTAATTAATCTGATCGCCCTCCCCC", "binding signal (log2 normalized intensity)": 5.26}, {"sequence": "ATTAGTCTCTGCTGGCTTTCCACTCAGGCT", "binding signal (log2 normalized intensity)": -1.19}, {"sequence": "ACAGGGGCCCAAGATAAAGGGACAGGGGTC", "binding signal (log2 normalized intensity)": 0.84}, {"sequence": "AAGGCTGTCACACTGGCCTTTGCCCTCGCT", "binding signal (log2 normalized intensity)": 4.98}, {"sequence": "GCAACAGGAAACAGCCTGTGTTCTCTCAAC", "binding signal (log2 normalized intensity)": -1.1}, {"sequence": "GAGAGGCTTATGCATGGGAGATCTTCAGTA", "binding signal (log2 normalized intensity)": -0.167}, {"sequence": "GAAAGACGAAAGGGACTTTGATCTTCTTAC", "binding signal (log2 normalized intensity)": 5.53}, {"sequence": "AGCTCTTTCCATTTTTGCTCCTGCACTTTT", "binding signal (log2 normalized intensity)": 2.16}, {"sequence": "GAGTACACTCAGCTGTGTCTACCCTTTTGC", "binding signal (log2 normalized intensity)": 1.06}, {"sequence": "GTAGGGCAGCAGCCGGCCTCTTAACAGATG", "binding signal (log2 normalized intensity)": -1.23}, {"sequence": "GCATCCCAGTAGAAAAAAAAATGGGCAAAG", "binding signal (log2 normalized intensity)": -1.04}, {"sequence": "AGGAATTTGGCTCTAGAGGAGTCCCCTTAA", "binding signal (log2 normalized intensity)": 0.67}, {"sequence": "AGACAGCATAGGAAGTGGGGAAGAAGTGTT", "binding signal (log2 normalized intensity)": -1.07}, {"sequence": "GCAGGGAAGGAGAGTGACCTCTGCTTGAAG", "binding signal (log2 normalized intensity)": 1.82}, {"sequence": "GGGAAGGCTAGCATTCCTGCACACCTGCCT", "binding signal (log2 normalized intensity)": -1.12}, {"sequence": "TCTTGTGGGCTGGGAGCTAATGAGCACATT", "binding signal (log2 normalized intensity)": -0.92}, {"sequence": "TACAGCAGGGTAGAAAAGAGTTAAAAAAAA", "binding signal (log2 normalized intensity)": -0.216}, {"sequence": "ATCCTTCAAAGCTGAGAATTGGGAGGGCTT", "binding signal (log2 normalized intensity)": -0.958}, {"sequence": "ATTATTGCCTGGCATCTAACCTTCGTCCTT", "binding signal (log2 normalized intensity)": 3.69}, {"sequence": "TAGCCTCAAATTCCTGGGCTCAAACAATCC", "binding signal (log2 normalized intensity)": -1.19}]}]}
